Results: article PMC4336329 (PLoS ONE, 2015)
Hit rate of the full screen: of about 310,000 compounds, about 14,000 (4.5%) showed an effect of 50% or more. Effects have a minus sign here. The list shows a part of the results.

target: human ether-à-go-go-related gene (hERG) potassium channel (human, UniProt Q12809); assay: primary screen, population patch clamp on CHO cells stably expressing hERG
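Also: peak tail current of the secondary pulse compared with the same well before compound.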

Chain of human ether-à-go-go-related gene (hERG) potassium channel (Q12809 whole entry, looked up): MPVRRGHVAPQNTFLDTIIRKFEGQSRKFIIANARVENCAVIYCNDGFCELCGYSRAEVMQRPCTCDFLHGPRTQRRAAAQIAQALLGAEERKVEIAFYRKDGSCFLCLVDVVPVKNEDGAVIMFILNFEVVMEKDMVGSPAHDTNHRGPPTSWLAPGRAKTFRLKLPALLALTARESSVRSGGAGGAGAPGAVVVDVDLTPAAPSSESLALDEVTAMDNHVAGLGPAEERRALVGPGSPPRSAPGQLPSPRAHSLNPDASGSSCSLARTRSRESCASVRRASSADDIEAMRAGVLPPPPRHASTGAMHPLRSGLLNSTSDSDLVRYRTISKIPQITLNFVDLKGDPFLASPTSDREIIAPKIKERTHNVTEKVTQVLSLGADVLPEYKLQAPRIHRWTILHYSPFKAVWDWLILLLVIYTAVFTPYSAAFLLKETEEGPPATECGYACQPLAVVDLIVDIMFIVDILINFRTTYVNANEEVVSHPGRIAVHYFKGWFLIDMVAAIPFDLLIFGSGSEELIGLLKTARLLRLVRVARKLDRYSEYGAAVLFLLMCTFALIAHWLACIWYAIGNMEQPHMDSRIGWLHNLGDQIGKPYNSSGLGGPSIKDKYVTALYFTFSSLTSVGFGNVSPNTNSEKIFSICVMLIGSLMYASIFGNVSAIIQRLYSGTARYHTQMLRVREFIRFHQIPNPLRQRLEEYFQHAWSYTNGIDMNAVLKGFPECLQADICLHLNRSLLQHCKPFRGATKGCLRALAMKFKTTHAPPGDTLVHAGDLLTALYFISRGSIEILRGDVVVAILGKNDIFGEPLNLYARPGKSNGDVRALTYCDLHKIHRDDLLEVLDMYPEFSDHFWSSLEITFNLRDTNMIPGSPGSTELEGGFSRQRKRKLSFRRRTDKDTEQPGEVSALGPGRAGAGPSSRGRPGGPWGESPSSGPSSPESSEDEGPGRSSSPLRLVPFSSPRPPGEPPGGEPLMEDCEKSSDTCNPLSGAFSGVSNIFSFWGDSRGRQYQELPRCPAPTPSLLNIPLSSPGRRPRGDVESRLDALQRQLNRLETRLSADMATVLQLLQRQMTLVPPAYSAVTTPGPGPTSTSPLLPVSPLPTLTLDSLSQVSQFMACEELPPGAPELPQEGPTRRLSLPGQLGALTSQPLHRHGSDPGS

SMILES	hERG current change (%, negative = inhibition) at 10uM
O=C(COC(=O)c1cc[n+]([O-])cc1)Nc1ccc(Br)cc1	-5.86%
Cc1cc(NS(=O)(=O)c2ccc(NC(=S)NC(=O)c3ccc(C(C)(C)C)cc3)cc2)no1	9.58%
CCc1ccc(-c2cc(C)no2)cc1S(=O)(=O)NCCCN1CCN(c2ccccc2)CC1	1.91%
CCc1ccccc1NC(=O)N[C@H](C(=O)O)C(C)C	11.4%
CCOc1ccccc1NC(=O)CSc1nnc(Cc2cccn2C)n1-c1ccc(F)cc1	-32.5%
COc1cc(C2C(C#N)=C(N)OC3=C2C(=O)CC(C)(C)C3)ccc1OCCN1CCOCC1 (stereo not shown)	13.1%
CCN1CCN(CC(O)COC(c2ccccc2)c2ccccc2C)CC1.O=C(O)C(=O)O (stereo not shown)	-10.6%
C#CCOC(=O)C[N+](C)(C)C/C=C/c1ccccc1.[Cl-]	10.4%
CC(O)CN(Cc1ccc(Cl)cc1)CC(C)O (stereo not shown)	7.61%
O=C(N/C(=C/c1cccs1)c1nc2ccccc2[nH]1)c1ccccc1	-3.24%
CCCCOCCCn1cnc2c([nH]c3cc(OC)ccc32)c1=O	-17.2%
COc1ccccc1C(=O)NCC(=O)OCC(=O)Nc1ccc2[nH]c(=O)[nH]c2c1	-0.79%
O=C(COc1cccc(F)c1)NNC(=O)c1cccc(-n2cccc2)c1	5.76%
Cc1oc(C(C)(C)C)cc1C(=O)Nc1cccc(C(=O)O)c1	2.6%
CCN1C(=O)c2ccc(C(=O)Nc3ccc4c(c3)OCO4)cc2C1=O	8.91%
COc1ccc(CCC(=O)Nc2cc(S(C)(=O)=O)ccc2Cl)cc1	-8.32%
Nn1c(COc2ccccc2F)nnc1SCC(=O)NC1CCCCC1	0.335%
Cc1nc2ccc(NC(=O)[C@@H](NC(=O)c3c(F)cccc3F)C(C)C)cc2s1	1.84%
O=C(NCCCc1ccccc1)C(=O)NCC1OCCN1S(=O)(=O)c1ccccc1 (stereo not shown)	-25.1%
OCC1(Cc2cccc(Cl)c2)CCCN(Cc2cn[nH]c2C2CCCCC2)C1 (stereo not shown)	-31.4%
CC(=O)Oc1ccc(OC(C)=O)c(SCCCCC[NH+]2CCOCC2)c1.[Cl-]	-0.904%
Cc1ccccc1N1CCN(C2CCCN(C(=O)c3ccccn3)C2)CC1 (stereo not shown)	-9.78%

SMILES	hERG current change (%, negative = inhibition) at 10uM
Cc1ccc(C(=O)OCC(=O)NCc2ccccc2)cc1S(=O)(=O)N1CCCCC1	-26.5%
CC(C)(C)OC(=O)NCCCC(CCCNC(=O)OC(C)(C)C)C(=O)O	3.55%
CC(C)(C)C(=O)c1no[n+]([O-])c1/C(=N/O)C(C)(C)C	0.66%
CSc1ccccc1NC(=O)C1CCCN(S(C)(=O)=O)C1 (stereo not shown)	21.9%
CN1CCN(S(=O)(=O)c2cccc(S(=O)(=O)c3ccc(Cl)cc3)c2)CC1	-31.7%
COC(=O)CSc1nnc(Cc2ccccc2)n1-c1ccc(C)cc1	-23%
NC(=O)C1CCN(C(=O)C2CCN(S(=O)(=O)c3ccccc3)CC2)CC1	9.79%
COC(=O)CCNCCSc1nnc(-c2ccco2)n1Cc1ccccc1.O=C(O)C(=O)O	-64.5%
Cc1cc(C)cc(NC(=O)C(OC(=O)c2ccc([N+](=O)[O-])o2)c2ccccc2)c1 (stereo not shown)	-1.24%
CCN(CCCNC(=O)CC(C(=O)N1CCc2ccccc21)n1ccnc1)c1ccccc1 (stereo not shown)	-45.6%
CSc1ccc(CN(C)C(=O)CNC(=O)c2sc3ccccc3c2Cl)cc1	13.2%
Cc1ccc(C(=O)NCC(=O)Nc2cccc(C(F)(F)F)c2)cc1	8.49%
Cc1[nH]c(=O)c(C(=O)c2cc(Cl)ccc2O)cc1C(=O)O	20.3%
O=C(NCCc1cccs1)C1CC(c2ccc([N+](=O)[O-])cc2)=NO1 (stereo not shown)	-49.9%
Cc1ccc(NC(=O)C2CC(=O)Nc3nc4ccccc4n32)c(C)c1 (stereo not shown)	5.39%
CCc1ccc(-c2nc(CS(=O)CC(=O)NCc3cccnc3)c(C)o2)cc1 (stereo not shown)	-22.7%
Cc1ccc(COc2ccccc2C(=S)N2CCCC2)cc1	19%
Cc1occc1C(=O)N1CCCC(N2CCN(c3ccccc3F)CC2)C1 (stereo not shown)	4.38%
COc1cccc(-n2c(SCC(=O)NCC3CCCO3)nc3c(c2=O)SCC3)c1 (stereo not shown)	6.13%
COC(=O)CSc1nnc(COc2ccc([N+](=O)[O-])cc2)n1C	-47.6%
Cn1c(=S)n(/N=C/c2ccc3c(c2)OCO3)c2ccccc21	13.5%
CN(C)c1ccc(-n2cccc2/C=N/n2cnnc2)cc1	15.5%

SMILES	hERG current change (%, negative = inhibition) at 10uM
Cc1ccc(N2C(=O)NC(=O)C(CCc3ccccn3)(Cc3ccc(F)cc3)C2=O)cc1 (stereo not shown)	12.9%
C=CCC1Cc2c(cccc2[N+](=O)[O-])C(CC=C)N1 (stereo not shown)	-8.35%
O=C(NC1=NCCS1)C12CC3CC(CC(C3)C1)C2	9.94%
CCC1CCCCN1C(=O)CCC(=O)Nc1nnc(C(F)(F)F)s1 (stereo not shown)	5.01%
CC(C)(C)OC(=O)N1Cc2ccccc2C[C@H]1C(=O)O	13.7%
Cc1ccc(C(=O)NNC(=O)C2CSC3(C)CCC(=O)N23)cc1 (stereo not shown)	24.9%
CCOC(=O)c1cnc2c(c(C)nn2C)c1Oc1ccc(Cl)cc1	-4.44%
COc1ccc(N2CCCC2)c(NC(=O)c2ccc([N+](=O)[O-])o2)c1	14%
COC(=O)c1ccc(/C=C(\C#N)c2nc3ccccc3s2)cc1	7.58%
Cc1ccc(CN(c2ccc(C(=O)N3CCOCC3)cc2)S(C)(=O)=O)cc1	-8.81%
Cc1cc(C(=O)N(C)CC(=O)Nc2ccc(F)c(F)c2F)no1	21.4%
Cc1csc(C(C#N)C(=O)c2ccc(S(=O)(=O)N3CCCC3)cc2)n1 (stereo not shown)	5.45%
CN(Cc1ccc(F)cc1)C(=O)c1cccc(S(=O)(=O)N2CCN(c3ccc(F)cc3)CC2)c1	-34.6%
CSc1cnc2c(=O)[nH]c(=O)n(C)c2n1	2.97%
CCC(NC(=O)CCc1nnc(-c2cc(C)on2)o1)C12CC3CC(CC(C3)C1)C2 (stereo not shown)	10.7%
CC1(c2nnc(-c3ccc(Cl)cc3)o2)CC(c2ccc(Cl)cc2)=NO1 (stereo not shown)	-8.01%
CCC(C)(C)NC(=O)C(c1ccc(OC)cc1)N(CCOC)C(=O)CCC(=O)Nc1nccs1 (stereo not shown)	0.428%
COC(CNC(=O)c1ccc(CS(=O)(=O)c2ccc(Br)cc2)o1)OC	3.41%
CCOCC(=O)Nc1nnc(COc2ccc(Cl)cc2)s1	0.0563%
Cc1c(CCC(=O)NCCCN2CCCC2=O)c(=O)oc2c(C)c(O)ccc12	13.6%
N#CCCN(Cc1cccs1)C(=O)Nc1ccccc1	11.8%
S=C(NCc1cccs1)Nc1ccccc1Cl	9.58%

SMILES	hERG current change (%, negative = inhibition) at 10uM
O=C(N/N=C\C=C\c1ccco1)C1COc2ccccc2O1 (stereo not shown)	5.7%
Fc1cccc(F)c1/C=N/Nc1ccccn1	22.9%
Cc1ccccc1NC(=O)Cc1nc(CCl)cs1	24.6%
COc1ccc(CNC(=O)c2ccc(S(=O)(=O)NCc3ccco3)cc2)cc1	-11.4%
COc1cccc(CNC(=O)[C@H](CCSC)NC(=O)N2CCn3c2nc2ccccc23)c1	-31.1%
O=C(Nc1ccc(F)cc1)c1c(O)c2c(n(Cc3ccccc3)c1=O)CCCC2	4.71%
O=C(OCC(=O)N1CCOCC1)c1ccc2c(c1)OCCO2	1.71%
CC1(C)CC(N2CCN(CCO)CC2)=CC(=S)N1	19.3%
CCOc1cc(C=O)ccc1OCCCN1C(=O)NC(C)(C)C1=O	12.4%
Cn1cc(CNC(=O)COc2ccc(Cl)cc2Cl)cn1	5.68%
COc1cc(S(=O)(=O)NCCCN2CCOCC2)ccc1-n1cnnn1.O=C(O)C(=O)O	11%
Nc1ccc(C(=O)C(=O)c2ccccc2)cc1	9.89%
COc1ccc(CNN2CCCCC2C(=O)Nc2ccc(OC)c(OCC(C)C)c2)cc1OC (stereo not shown)	-34.4%
COc1ccc(-c2ccc(SCC(=O)c3ccc(F)cc3)nn2)cc1OC	-13.7%
O=C(CSc1nnc(-c2ccncc2)n1-c1ccc(F)cc1)NNC(=O)c1cccc(O)c1	11.1%
O=C1CC(C(=O)N2CCC(N3CCC(C(=O)NC4CC4)CC3)CC2)c2ccccc21 (stereo not shown)	-5.42%
O=C1c2ccccc2NC(c2ccc(Cl)cc2Cl)N1O (stereo not shown)	6.79%
COc1ccccc1-c1nnc(-c2ccc(F)cc2)o1	-25.4%
Cc1ccc(S(=O)(=O)N(CCC(=O)Nc2ccc(OC(F)(F)F)cc2)c2ccccc2)cc1	-14%
Cc1ccc2[nH]c(C(=O)N3CCCC(Nc4ccc(F)cc4)C3)cc2c1 (stereo not shown)	-3.73%
Cc1ccc(S(=O)(=O)c2cn(C)c3cc(N4CCN(C)CC4)c(F)cc3c2=O)cc1	-28.4%
O=C(Nc1ccc(Cl)cc1)C1CCCN(c2ncnc3c2nc2n3CCCCC2)C1 (stereo not shown)	-50.1%
